From the RNAGym collection of RNA variant scans (doi:10.7554/elife.90254)
Read counts are not given, so values of variants with three or more changes are uncertain.

B1: OR4K15 (parent)
chain: GUUAACGGUCAUAGGCCAUGGAAACUAGGAGCACCAUUUCGCUGCCAGUGAAGAAAUGAACAAAGAAAAUCUGGGCCAGGCAGGCAUCAAAAGAAAUAGUCUUGCGCUCAACCAGAAAGUCUGUAAUCAUUUUAAGGGUA

Variants of: B1
Assay: self-cleavage, relative activity (ratio to wild type); higher = more cleavage; in vitro, sequencing; the parent is a self-cleaving ribozyme

Variant	self-cleavage
A24U A56G U103C	1.43
A24G G48A A66U A91G	0.35
A27G A55G A114U	0.07
A27G U49C G53U A60G A82U C121G	0.2
U26A U57A A90U U100C	1.94
U26C A118U U132A	0.13
A27G A69G A116G A118G	0.81
A24G U38C U39A A62G G83A U131C	1.18
U26C A118U U122C	0.75
U26C G65A A68G	1.19
U26A A67G U72A A96G U108C	0.01
A24G U37A A52G A56G U108G	0.01
A24U A30G U127C	0.57
A27G A47G A60U U87C A94G A116U	0.31
U26A A56C A82G A114G	0.09
A24G U57C A95G U100C	1.56
A24U A27G A33C U39C U70A	0.42
A27G U39C A56G A114U U122A U132A	0.1
U26C A52G U102C U120C	2.19
A27G A36G C76U	0.05
A24G G53U A94G A135G	0.76
A27U U38C U133C	1.94
A27G U43C U72C A118G	0.15
A24G U100A U131C	0.73

Variant	self-cleavage
A24U U39C A82G A111U	0.08
A27G A33G A56G	1.41
U26C A36U U38C A52G A55G A62G A90G U120C	0.38
A27G A66G A114G U139A	0.67
A24G U49C A69C A82U A140G	0.23
A24G U39C A51C U124A	0.52
A24G U57C A95G U130C	1.36
A24G U72C U103C	0.16
A27U A90G G136A	1.54
A24G U49C U57G U97C	0.93
A27U A47G U57C A95G A111G U122C	0.01
U26A A27G U103C	0.79
A24G U57C A82G	0.3
A24G C32U A36U A62G A86G U103C	0.39
A24U A110U A126G	1.08
U26C U39C A56C C71A	0.08
A24G U87C A91G U122C U132C	0.54
A24G C35U A54G	1.25
C25G A67G U100A G136U	0.97
A24U A66G U102C	1.1
G29A A91G A114G	0.05
C25A U39C A62G	2.02
A24G U38A A63G	0.21
A27G A64G A86G A114G	1.28

Variant	self-cleavage
U26C A114G A135U	0.01
A27G C61A U100C U127A	2.9
C25A A69U A117U U132C	0.55
A24G U57G A140G	0.86
A27G A30G G73U A86U	0
A27U A69G A90G U103C A117G U127C	0.02
A27U A69G U108C U122C	0
U26A A33G U122C	0.32
A27G A69C C107U	0.03
A24G U43C A69U U70C	1.01
A24U A30G A94G	1.13
A24G U57C A116G U122C A126G	0.28
A24G U70C A111G G123A	0.02
C25U U49C A52G	1.67
U26C A52G A86G C101U A117G A135G	0.03
A24G U108C A110G	0.02
A27G U43A U103C U108A	0.03
A27G U100C C128U U132C	2.04
A27G A51G A110C	0.45
U26G G41A A94G	1.13
U26C A52G A54G A55G A59U A62U A116G U122C	0.05
A27G A69G A89G U103C	0.85
U26C U57C A82U A96G U124C	0.19
U26C A91G A94G	1.21

Variant	self-cleavage
A27U A82G U130C	0.24
A24G U49C U100A	0.64
A24U G41A A96G U132C	1.13
U26A A56G U102C	1.48
G28A A55U A60G A62G	0.28
A24G U120C U130C	0.48
G28U A56G A116G	1.83
C25U A68G A117G	2.31
A27G U39C G136A	1.02
A27G A47U A110G	0.05
C25A A33U U103C	0.88
A27G A110G U122A	0.12
U26C A95G A117G U127C	2.27
A24G U49A U127A	1.94
A27G U103C U108C	0.01
A24G G29A A56G A59G A60G A95G	1.71
G28A A56G A90C U124A	0.56
A27U A91G A92G U108C	0.01
U26C A30G A86G	1.75
U26C A68G G74U U103C U122A	0.05
A27G A36G A59G	0.7
A24G C46U A95G	2.72
C25A A51G A60G	0.87
A27G A47U A91G A116U A118U U122C	0

Variant	self-cleavage
G28U A96G A110G U120A	0.22
U26C C61U A90G	1.99
A27G A30C U38C A60G U70A A78U	0.09
A27G A90G A126G	0.67
A24U A54G A95G A126G	1.07
A27G A36U A47U A52G C85U A118G A129U A135G	0.02
U26A A30G G50U U72A A86G	0.18
U26G A64G U120C	0.98
U26A G44U A62G U130C	0.4
A27G A51U A66G A69U	0.89
A24U A47G A63G U72C A94G	0.34
A27G A68G A114U	0.22
A27G A62U U87C U102C C121A	2.73
A27G A67G A86G U100A U124A	0.33
A24U U43C A63C A78G A114U	0.05
A27U U87A A94U	1.51
C25U A66U A86U	0.82
U26A A66G U122C	1.17
A24U U39A G41C A59G U102C	0.63
A27U A96G A118G	1.15
A27U A114G A118G	0.44
A27G U87C U103A	0.08
A24G U57C A60U A62G	1.2
A27G U38C U127C	0.22

Variant	self-cleavage
U26C A59G U103C A110G U127A	0.05
U26A A27G A69G U72C	0.31
U26A G41A U43C A69G A117G	1.38
A24G U38C U43A A54G U103A	0.37
U26A U37C A125G	0.55
A24G U43C U70A A95G	1.21
A27G G80A A125G U132C	0.05
A24G C40U A68C A118G	2.05
U26C A51U A116G	0.99
U26A U39C A62U A86G U122C	1.26
A27G U37C U39C A67G	1.09
U26C U72C A91G	0.11
A27G A52G A56G A96G A110G	0.19
A24G U57A U124A	0.89
U26C A82G A111G	0.04
U26C U57G A63G A118G U131C	0.86
C25A C46U A54G A135G	1.48
A24G U37C A51G A54G A95G	0.64
A24U C45A A63G A64G C88A A94G A95G C128U U130C	1.3
A27G U70C A98U A114G	0.37
U26A C46U A47C A82U	0.21
G28A A129U U131C	0.7
U26C A56G A92G A129G	0.75
A24U A69G A78G A117G	0.06

Variant	self-cleavage
U26C A68G A95G A117G	2.1
A24G U43C A118G U122C U131C	0.48
U26C A51G U70A A111G	0.04
A24U A30G C45U A67G A118G U127C	0.56
A24G C34U U57C A60G U87A U103C U108C A116G	0.01
A24G U39C A67G	1.41
G29A A62G A69G C113U A117G	0
A24G U39C A55U U131C	0.67
A24U A66G A140G	0.81
U26C U43A A47G U57C A69G U70C U97C	0.11
A27G A30G A36G U103C	0.22
A27G A68G A82G U124C A140G	0.33
A27G U37C G44A A98G	0.58
U26C U49C A60G A62G	0.77
A27G U37C U87C U108C	0.02
A27G U38C A51U A54G A67G U108C	0.01
A27G A55U A110G	0.21
U26C A30G A51G U102C	1.43
U26G A54G U102C	1.68
U26C A33G G65U A126U U132C	0.58
A27G A67G U72C A135G	0.3
A24G C40U A78G U108C	0.03
A27G A62G A82G	0.42
